# According to the supplement of paper PMC7125110:
# ± gives the standard error. This sample is rich in variants without activity.
# B1: glmS ribozyme (parent)
# chain: AUAAAAGCGCCAGAACUACAGAAAUGUAGUUGACGAGGAGGAGGUUUAUCGAAUUUUCGGCGGAUGCCUCCAAA
# Assays:
# Conditions in all cases: with glucosamine-6-phosphate
# [1] = variants of: B1; test: self-cleavage kobs at 640 uM GlcN6P; higher = faster cleavage; RNA array
# In short: (§1)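 On sequenced MiSeq chips, barcoded ribozyme variants were made in situ by E. coli RNA polymerase and followed at 37 °C through a hybridised Cy3 probe. Glucosamine-6-phosphate was flowed in at 40 μM to 10 mM in HEPES/KCl/Mg(OAc)2 buffer. Exponential fits to normalised per-tile medians gave kobs, and weighted Michaelis–Menten fits gave kcat and KM.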
# [2] = variants of: B1; test: self-cleavage kobs at 2500 uM GlcN6P; higher = faster cleavage; RNA array
# In short: as §1
# [3] = variants of: B1; test: self-cleavage kobs at 160 uM GlcN6P; higher = faster cleavage; RNA array
# In short: as §1
# [4] = variants of: B1; test: self-cleavage kobs at 10000 uM GlcN6P; higher = faster cleavage; RNA array
# In short: as §1
Variant,self-cleavage kobs at 640 uM GlcN6P [1] [s⁻¹],self-cleavage kobs at 2500 uM GlcN6P [2] [s⁻¹],self-cleavage kobs at 160 uM GlcN6P [3] [s⁻¹],self-cleavage kobs at 10000 uM GlcN6P [4] [s⁻¹]
AUAAAAGCGCCAGAACUACAGAAAUGUAGUUGACGAGGAGGAGAUUUAUCGAAUUUUGGGCGGAUGCCUCCAAA [G44A C58G],< 1e-05,< 1e-05,–,–
AUAAAAGCGCCAGAACUACAGAAAUGUAGUUGACGAGGAGGAGAUUUAUCGAAUUGUCGGCGGAUGCGUCCAAA [G44A U56G C68G],< 1e-05,–,–,–
AUAAAAGCGCCAGAACUACAGAAAUGUAGUUGACGAGGAGGAGCUUUGUCGAAUUUUCGGAGGAUGCCACCAAA [G44C A48G C61A U69A],< 1e-05,< 1e-05,< 1e-05,< 1e-05
AUAAAAGCGCCAGAACUACAGAAAUGUAGUUGACGAGGAGGAGGCUUAUCGAAUUUUCGGCCGAUGUCUCCAAA [U45C G62C C67U],< 1e-05,–,< 1e-05,–
AUAAAAGCGCCAGAACUACAGAAAUGUAGUUGACGAGGAGGAGAUUUAUCGAACUUUCGGCGGAUGCCUCCAAA [G44A U54C],0.000114 ± 1.7e-05,–,–,–
AUAAAAGCGCCAGAACUACAGAAAUGUAGUUGACGAGGAGGAGGGUUAUCGAAUUUUCGGCGGAUCCCUCCAAA [U45G G66C],0.000414 ± 0.00017,0.000927 ± 0.00042,–,0.00369 ± 0.00067
AUAAAAGCGCCAGAACUACAGAAAUGUAGUUGACGAGGAGGACGUUUAUCGAAUUUUCGGCGGAUGCCUUCAAA [G43C C70U],< 1e-05,–,< 1e-05,–
AUAAAAGCGCCAGAACUACAGAAAUGUAGUUGACGAGGAGGAGGAUUAUCGAAUUUUCGGCGGAUGCGUCUAAA [U45A C68G C71U],< 1e-05,< 1e-05,< 1e-05,–
AUAAAAGCGCCAGAACUACAGAAAUGUAGUUGACGAGGAGGAGGUCUAUCGAAUUUUCGGGGAAUGCCUACAAA [U46C C61G G63A C70A],< 1e-05,< 1e-05,–,–
AUAAAAGCGCCAGAACUACAGAAAUGUAGUUGACGAGGAGGAUGUUUAUGGAAUUUUCGGCGGAUGCCUCUAAA [G43U C50G C71U],< 1e-05,< 1e-05,< 1e-05,–
AUAAAAGCGCCAGAACUACAGAAAUGUAGUUGACGAGGAGGAGUAUUAUCGAAUUUUCGGCGGAUGCCUCCAAA [G44U U45A],0.000175 ± 3.5e-05,0.000478 ± 9.7e-05,–,0.00046 ± 0.00014
AUAAAAGCGCCAGAACUACAGAAAUGUAGUUGACGAGGAGGAUAUUUAUCAAAUUUUCCGCGGAUCCCUCCAAA [G43U G44A G51A G59C G66C],< 1e-05,–,–,< 1e-05
AUAAAAGCGCCAGAACUACAGAAAUGUAGUUGACGAGGAGGAGCUUUAUCGAAUUUUCGGCGGAUGCAGCCAAA [G44C C68A U69G],< 1e-05,–,–,–
AUAAAAGCGCCAGAACUACAGAAAUGUAGUUGACGAGGAGGACGUUUAUCGCAUUUUCGGCGGAUGCAUCCAAA [G43C A52C C68A],< 1e-05,–,–,–
AUAAAAGCGCCAGAACUACAGAAAUGUAGUUGACGAGGAGGAGGAUUAUCGAAUUUUCGACGGAUUCCUCCAAA [U45A G60A G66U],< 1e-05,< 1e-05,< 1e-05,–
AUAAAAGCGCCAGAACUACAGAAAUGUAGUUGACGAGGAGGAUGUUUAUCGAAUUUUCGGCGGAAGCCUCCAAA [G43U U65A],< 1e-05,–,< 1e-05,–
AUAAAAGCGCCAGAACUACAGAAAUGUAGUUGACGAGGAGGACGUUUAACGAAUUUGCGGCGGAUGCGUCCAAA [G43C U49A U57G C68G],< 1e-05,–,–,–
AUAAAAGCGCCAGAACUACAGAAAUGUAGUUGACGAGGAGGAGUUUUAUCGUAUUUUCGCCGGAUGCCUCCAAA [G44U A52U G60C],< 1e-05,–,–,–
